The full ranking holds about 33,000 sequences; the median of “E-score (-0.5 to 0.5)” is about -0.01, and the highest 2% start at about 0.26. The list shows a part of the results.
biological target: Ste12 (UniProt P13574); assay: PBM E-score (8-mer binding enrichment) (E-score (-0.5 to 0.5)); higher = stronger / more preferred TF binding; most listed sequences are background and not binding sites; conditions: protein concentration: 200 nM; construct: GST-DNA-binding domain
Method: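 Universal 'all 10-mer' protein binding microarrays (Agilent AMADID 015681) probed with GST-tagged S. cerevisiae TFs (full-length or DBD) made by in vitro transcription/translation (PURExpress), about 100-200 nM. Bound TF was detected with fluorescent anti-GST. Each ungapped 8-mer (which stands for itself and its reverse complement) is scored by the PBM enrichment score (E-score), a modified Wilcoxon-Mann-Whitney statistic from -0.5 to +0.5, computed with the Universal PBM Analysis Suite. Scale: above 0.35 generally sequence-specific binding.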

| Sequence | PBM E-score |
| --- | --- |
| ATTGTGTG | -0.0472 |
| ACCTCCGA | -0.0688 |
| ACTGTGCG | 0.0712 |
| GGGGCGAA | 0.112 |
| AGAGTATC | 0.106 |
| GGCTTACA | 0.00317 |
| TACGTATA | 0.0442 |
| AAGGGACA | 0.0223 |
| GGATGGCA | 0.106 |
| AAAGCAAT | 0.151 |
| AACACAAC | 0.172 |
| TGTCCTAA | -0.141 |
| AAATACCA | 0.203 |
| GAAGCTAC | -0.184 |
| AACGGGGG | -0.0478 |
| ATGGTGTG | 0.113 |
| GCTTTCAC | 0.0706 |
| ACTTCCAC | -0.0183 |
| ACGAGGCC | -0.225 |
| AAGGGAAA | 0.0253 |
| CCGAAGCG | -0.115 |
| GCCGAGTA | -0.16 |
| ATCCAACA | 0.0608 |
| CCTGTATC | 0.112 |
| ATCTAAGC | -0.00576 |

| Sequence | PBM E-score |
| --- | --- |
| ATGTTGCG | 0.139 |
| CATACTAG | 0.0597 |
| AGATCAAC | 0.0312 |
| AGGTACCA | -0.194 |
| AGTTGGCC | -0.172 |
| GCTTCCAC | -0.11 |
| ATGCCAGA | 0.172 |
| CGGGCGCC | -0.0614 |
| GTGCATAA | 0.0464 |
| GTGGTCCA | 0.00441 |
| ACCAAACT | 0.187 |
| ACCATGAA | 0.247 |
| ATATATCA | 0.00834 |
| AATTGAGG | 0.0215 |
| AAGATCCT | -0.127 |
| GCCCAAGA | -0.211 |
| AAGGCAAC | -0.0828 |
| ACGGGACA | 0.0992 |
| CAGATTTA | 0.246 |
| AAGGTCGC | -0.118 |
| ACAGATCT | 0.0428 |
| CTATTCAG | -0.0515 |
| ACCGCCTC | -0.0604 |
| AAAGATAC | 0.0821 |
| AGAGGGGC | -0.147 |

| Sequence | PBM E-score |
| --- | --- |
| GCTGTAAC | 0.197 |
| AATCACCC | 0.182 |
| ACTTCAAC | 0.00966 |
| AAAAACTA | 0.188 |
| GAGACACA | 0.12 |
| ATACTCTA | 0.0717 |
| GTCGCCGA | -0.0815 |
| AACCCGTC | -0.187 |
| GCAGTAAC | 0.00347 |
| CAGTAATG | -0.0545 |
| TCACTAGA | 0.119 |
| CTTAGTCC | -0.127 |
| TAGCCGAA | 0.0257 |
| TACCGCTA | -0.0086 |
| CGTGTGGA | -0.0738 |
| AGAACCGC | 0.0751 |
| AGACACTC | -0.0744 |
| CAAATAAG | 0.0883 |
| AGTAACTA | 0.116 |
| CGTTATAC | -0.201 |
| CCTCGGCC | -0.0272 |
| ACACCCAC | 0.102 |
| TAAGGGAA | 0.0806 |
| CATCCGGC | -0.014 |
| TTAAAGAA | 0.251 |

| Sequence | PBM E-score |
| --- | --- |
| ATTAGATG | 0.206 |
| CATTCAAC | -0.0546 |
| CCGAGTAC | -0.126 |
| CCTATAAC | 0.0184 |
| TACGGCGA | 0.0254 |
| GTACAATA | -0.0746 |
| AGAGCATC | -0.148 |
| GGCGGCGA | 0.0676 |
| CAGGGCAA | 0.106 |
| AGTCAACA | 0.0619 |
| AAGTCGTA | -0.129 |
| ATATATCG | 0.21 |
| GGGGGCAA | -0.0188 |
| ACTCCCTG | 0.0877 |
| CAGACCTC | -0.21 |
| TGAATACA | 0.119 |
| CATCAAGA | -0.101 |
| AACGTAAC | 0.201 |
| AAAAGTCT | 0.158 |
| CAAAATAG | -0.0251 |
| AGCATGGA | -0.103 |
| AGCGACAG | 0.0949 |
| CGCAGAGA | -0.141 |
| GGTGAAAA | 0.0914 |
| AATAAATA | 0.21 |

| Sequence | PBM E-score |
| --- | --- |
| AGCGACTC | -0.245 |
| GTGGTGTA | -0.00016 |
| GCTAGTCA | -0.214 |
| CCCAAGAG | -0.164 |
| AGGGCACC | -0.197 |
| AGAAGCCG | 0.0203 |
| AGCTCCTG | -0.121 |
| AATAAAGG | -0.0048 |
| TGAGTTAA | 0.0764 |
| ACAACAAT | 0.177 |
| ATGCAGTC | -0.108 |
| GATCTCCC | -0.17 |
| GGCGCTCA | -0.066 |
| CTAACAGA | 0.153 |
| CACCCGAG | 0.0483 |
| ACTTGGCT | -0.163 |
| AGCTATTC | -0.125 |
| ATGCACGG | -0.0972 |
| CCCACGGC | -0.18 |
| GAAAGAGC | -0.0336 |
| CCCAAACG | 0.0986 |
| GAATATGA | 0.107 |
| AGGGTCTA | -0.242 |
| GCAGGCCA | -0.0982 |
| CTTTTACA | 0.269 |

| Sequence | PBM E-score |
| --- | --- |
| CATTAGTC | -0.0812 |
| ACCGTTGG | -0.188 |
| ACATGAGG | 0.0743 |
| ACGGCGCA | -0.0878 |
| CGAAAGAC | -0.0474 |
| GGTGTAAC | 0.0791 |
| ATCCCACA | 0.00176 |
| ACGGGGTC | -0.00112 |
| ATTCAGCC | -0.109 |
| ATGATGAG | 0.0835 |
| CAGCACGC | -0.164 |
| CGCACCCA | 0.172 |
| GTCTACTA | -0.134 |
| ACAACGGC | -0.0667 |
| CCAGGATA | 0.183 |
| CATGCGGA | -0.138 |
| AGTGCACC | 0.0145 |
| ACACACAG | 0.123 |
| ACGTTATA | 0.122 |
| AAGGGAGG | -0.0233 |
| AAGGCGGA | 0.029 |
| CGTCGACG | -0.124 |
| GTAGTTGA | 0.119 |
| ACAACCCA | 0.118 |
| AGTGCATC | -0.154 |

| Sequence | PBM E-score |
| --- | --- |
| CGAGGTAG | -0.219 |
| AACCTGAG | 0.158 |
| CTCAACGC | -0.0089 |
| AAATGACG | 0.132 |
| GCACCTCA | -0.0873 |
| CATCTTAA | 0.117 |
| CGCTTCAG | 0.0977 |
| AAAAAACG | 0.269 |
| CAGATTCC | -0.0757 |
| CGCTAATC | 0.0537 |
| CCGTTAGC | -0.121 |
| AACCTCCC | 0.0949 |
| CGGTGATA | 0.104 |
| GGAATTTA | -0.0537 |
| AAGCAACT | -0.142 |
| CTATCGCC | -0.142 |
| GCGGATGA | 0.112 |
| ACCAATCT | 0.068 |
| CTGATGAC | -0.0999 |
| AGGCGTTG | 0.0579 |
| ACACCTCC | -0.226 |
| GTGGATCA | -0.109 |

From the supplement of paper PMC3334620
